In the supplement of paper PMC10369915:
Some of the results follow. Rule as the data show it: active = 3.2 or more and inactive = the rest. Most of these values are background signal.

target: SHP2 C-SH2 domain E139D; experiment: enrichment score (SH2-bound / input frequency) (ratio); bacterial display of known human phosphotyrosine sites (pTyr-Var adds point mutants) read by sequencing; higher = stronger binding; tyrosines were phosphorylated by kinases first; conditions: peptide library: pTyr-Var
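Also: displayed peptides selected on beads carrying the immobilized SH2 domain, with library peptides lacking any tyrosine serving as negative controls.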

Enrichment score, inactive:
MEYLPYGSLRD [JAK2_Y934] 0.78
MECLPYGSLRD [JAK2_Y934_Y931C] 0.814
MEFLPYGSLRD [JAK2_Y934_YF] 0.893
VEKEKYVSYIS [JMJD1C_Y596_M591V] 0.761
EWQQIYTYDSG [JUP_Y20_T19I] 1.23
QQTYTYDSGIH [JUP_Y22] 0.596
QQIFTYDSGIH [JUP_Y22_T19I_YF] 0.976
PINEPYGDDMD [JUP_Y693] 0.404
DLDATYRPMFS [JUP_Y701_M697L_YF] 0.668
VRRRSYSAGNA [KANK1_Y324_K321R] 0.226
EHTTLYSNNST [KANSL1_Y223] 0.827
EHTTLYSDNST [KANSL1_Y223_N225D] 0.44
EHTILYSNNST [KANSL1_Y223_T221I] 1.02
GKLIFHDLRGE [KARS1_Y145_Y145H] 1.06
GREEFYVHYVG [KAT8_Y90] 0.901
GGEEFYVHYVG [KAT8_Y90_R86G] 0.759
GGEEFYVHFVG [KAT8_Y90_R86G_YF] 1.1
RGDTVYTVNRM [KBTBD13_Y404] 0.55

target: SHP2 C-SH2 domain wild-type; experiment: as above; conditions: peptide library: pTyr-Var

Enrichment score, inactive:
MEYLPYGSLRD [JAK2_Y934] 1.27
MECLPYGSLRD [JAK2_Y934_Y931C] 1.06
MEFLPYGSLRD [JAK2_Y934_YF] 0.916
VEKEKYVSYIS [JMJD1C_Y596_M591V] 0.845
EWQQIYTYDSG [JUP_Y20_T19I] 1.25
QQTYTYDSGIH [JUP_Y22] 0.677
QQIFTYDSGIH [JUP_Y22_T19I_YF] 1.16
PINEPYGDDMD [JUP_Y693] 0.377
DLDATYRPMFS [JUP_Y701_M697L_YF] 0.565
VRRRSYSAGNA [KANK1_Y324_K321R] 0.283
EHTTLYSNNST [KANSL1_Y223] 0.758
EHTTLYSDNST [KANSL1_Y223_N225D] 0.651
EHTILYSNNST [KANSL1_Y223_T221I] 0.927
GKLIFHDLRGE [KARS1_Y145_Y145H] 1.02
GREEFYVHYVG [KAT8_Y90] 1.26
GGEEFYVHYVG [KAT8_Y90_R86G] 0.921
GGEEFYVHFVG [KAT8_Y90_R86G_YF] 1.2
RGDTVYTVNRM [KBTBD13_Y404] 0.575

target: SHP2 N-SH2 domain L43F; experiment: as above; conditions: peptide library: pTyr-Var

Enrichment score, inactive:
MEYLPYGSLRD [JAK2_Y934] 0.814
MECLPYGSLRD [JAK2_Y934_Y931C] 0.948
MEFLPYGSLRD [JAK2_Y934_YF] 1.24
VEKEKYVSYIS [JMJD1C_Y596_M591V] 0.727
EWQQIYTYDSG [JUP_Y20_T19I] 1.54
QQTYTYDSGIH [JUP_Y22] 0.575
QQIFTYDSGIH [JUP_Y22_T19I_YF] 0.848
PINEPYGDDMD [JUP_Y693] 0.335
DLDATYRPMFS [JUP_Y701_M697L_YF] 0.74
VRRRSYSAGNA [KANK1_Y324_K321R] 0.207
EHTTLYSNNST [KANSL1_Y223] 0.526
EHTTLYSDNST [KANSL1_Y223_N225D] 0.309
EHTILYSNNST [KANSL1_Y223_T221I] 0.735
GKLIFHDLRGE [KARS1_Y145_Y145H] 1.25
GREEFYVHYVG [KAT8_Y90] 0.773
GGEEFYVHYVG [KAT8_Y90_R86G] 0.714
GGEEFYVHFVG [KAT8_Y90_R86G_YF] 0.968
RGDTVYTVNRM [KBTBD13_Y404] 0.588

target: SHP2 N-SH2 domain T42A; experiment: as above; conditions: peptide library: pTyr-Var

Enrichment score, inactive:
MEYLPYGSLRD [JAK2_Y934] 0.787
MECLPYGSLRD [JAK2_Y934_Y931C] 0.783
MEFLPYGSLRD [JAK2_Y934_YF] 0.87
VEKEKYVSYIS [JMJD1C_Y596_M591V] 0.664
EWQQIYTYDSG [JUP_Y20_T19I] 0.816
QQTYTYDSGIH [JUP_Y22] 0.615
QQIFTYDSGIH [JUP_Y22_T19I_YF] 1.01
PINEPYGDDMD [JUP_Y693] 0.333
DLDATYRPMFS [JUP_Y701_M697L_YF] 0.565
VRRRSYSAGNA [KANK1_Y324_K321R] 0.192
EHTTLYSNNST [KANSL1_Y223] 0.682
EHTTLYSDNST [KANSL1_Y223_N225D] 0.33
EHTILYSNNST [KANSL1_Y223_T221I] 1.97
GKLIFHDLRGE [KARS1_Y145_Y145H] 1.18
GREEFYVHYVG [KAT8_Y90] 0.735
GGEEFYVHYVG [KAT8_Y90_R86G] 0.758
GGEEFYVHFVG [KAT8_Y90_R86G_YF] 1.01
RGDTVYTVNRM [KBTBD13_Y404] 0.645

target: SHP2 N-SH2 domain T52S; experiment: as above; conditions: peptide library: pTyr-Var

Enrichment score, inactive:
MEYLPYGSLRD [JAK2_Y934] 0.892
MECLPYGSLRD [JAK2_Y934_Y931C] 0.682
MEFLPYGSLRD [JAK2_Y934_YF] 1.26
VEKEKYVSYIS [JMJD1C_Y596_M591V] 0.773
EWQQIYTYDSG [JUP_Y20_T19I] 1.17
QQTYTYDSGIH [JUP_Y22] 0.724
QQIFTYDSGIH [JUP_Y22_T19I_YF] 0.996
PINEPYGDDMD [JUP_Y693] 0.413
DLDATYRPMFS [JUP_Y701_M697L_YF] 0.744
VRRRSYSAGNA [KANK1_Y324_K321R] 0.238
EHTTLYSNNST [KANSL1_Y223] 0.556
EHTTLYSDNST [KANSL1_Y223_N225D] 0.444
EHTILYSNNST [KANSL1_Y223_T221I] 0.636
GKLIFHDLRGE [KARS1_Y145_Y145H] 1.12
GREEFYVHYVG [KAT8_Y90] 0.707
GGEEFYVHYVG [KAT8_Y90_R86G] 0.714
GGEEFYVHFVG [KAT8_Y90_R86G_YF] 0.925
RGDTVYTVNRM [KBTBD13_Y404] 0.601

target: SHP2 N-SH2 domain wild-type; experiment: as above; conditions: peptide library: pTyr-Var

Enrichment score, inactive:
MEYLPYGSLRD [JAK2_Y934] 1.13
MECLPYGSLRD [JAK2_Y934_Y931C] 1.03
MEFLPYGSLRD [JAK2_Y934_YF] 1.2
VEKEKYVSYIS [JMJD1C_Y596_M591V] 0.864
EWQQIYTYDSG [JUP_Y20_T19I] 1.11
QQTYTYDSGIH [JUP_Y22] 0.905
QQIFTYDSGIH [JUP_Y22_T19I_YF] 0.717
PINEPYGDDMD [JUP_Y693] 0.391
DLDATYRPMFS [JUP_Y701_M697L_YF] 0.75
VRRRSYSAGNA [KANK1_Y324_K321R] 0.215
EHTTLYSNNST [KANSL1_Y223] 0.881
EHTTLYSDNST [KANSL1_Y223_N225D] 0.497
EHTILYSNNST [KANSL1_Y223_T221I] 1.13
GKLIFHDLRGE [KARS1_Y145_Y145H] 1.15
GREEFYVHYVG [KAT8_Y90] 0.874
GGEEFYVHYVG [KAT8_Y90_R86G] 0.776
GGEEFYVHFVG [KAT8_Y90_R86G_YF] 1.32
RGDTVYTVNRM [KBTBD13_Y404] 0.698
